# Measurements reported in PubChem BioAssay AID1476 (National Center for Advancing Translational Sciences (NCATS), 2009).
# The campaign covered roughly 200,000 compounds. About 4,500 (2.2%) were called active. Inconclusive results, whose numbers are uncertain, are shown with a selection of clear calls. The call rests on the fitted dose curve; in most records, active means well fitted inhibition curve with a large enough effect; inconclusive means small, poorly fitted or top-dose-only effect, or effect the other way; inactive means flat fitted curve, though single readings scatter. Potencies of inconclusive entries are doubtful fits and often do not repeat.
# Target: Cruzipain (Trypanosoma cruzi) (UniProt P25779)
# Assay: qHTS Assay for Promiscuous and Specific Inhibitors of Cruzain (without detergent); further: nearly all actives have a fitted effect of over 40% in size;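 on max response, negative = inhibition: plate controls were enzyme without inhibitor for no effect and buffer without enzyme for full effect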
# Settings: purified cruzain, Z-FR-AMC fluorescence, no detergent
# Method in brief: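 Purified cruzain at 1.5 nM, pre-incubated 15 min with compound at room temperature in 100 mM sodium acetate pH 5.5, 5 mM DTT, 0.00005% Triton X-100. Reaction started with 2 uM Z-FR-AMC; AMC fluorescence increase over 60 s gives rate.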
# Potency means the concentration at half of the fitted maximal effect; tags describe the fitted curve by direction and shape.
# Chain of UniProt P25779 (P25779 whole entry, looked up): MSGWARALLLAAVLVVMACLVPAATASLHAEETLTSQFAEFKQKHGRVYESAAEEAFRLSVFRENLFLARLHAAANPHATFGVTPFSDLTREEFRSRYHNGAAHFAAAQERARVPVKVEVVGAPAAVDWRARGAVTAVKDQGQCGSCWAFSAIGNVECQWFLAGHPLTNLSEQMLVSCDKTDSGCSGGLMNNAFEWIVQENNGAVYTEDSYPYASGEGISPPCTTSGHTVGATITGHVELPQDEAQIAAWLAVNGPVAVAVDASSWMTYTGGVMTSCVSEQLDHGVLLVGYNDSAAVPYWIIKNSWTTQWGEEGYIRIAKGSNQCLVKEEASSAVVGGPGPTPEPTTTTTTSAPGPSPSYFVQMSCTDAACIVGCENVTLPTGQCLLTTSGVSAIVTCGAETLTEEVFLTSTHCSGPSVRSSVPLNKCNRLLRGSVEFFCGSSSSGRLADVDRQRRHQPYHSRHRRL
SMILES,Potency,"max response, negative = inhibition"
COc1ccc(-c2cc(C(F)(F)F)nc(S(C)(=O)=O)n2)cc1OC,"inconclusive: 39.8 µM [activator, single point]",–
S=C(NCc1ccc2c(c1)OCO2)Nc1ccc(-c2nc3ccccc3[nH]2)cc1,active: 20 µM,–
CCCCCn1c(SCC2CCCO2)nc2cc(C(=O)N3CCC(C(N)=O)CC3)ccc2c1=O (centres undefined),"inconclusive: 20 µM [activator, partial curve]",–
O=C(CSc1nnc(-c2cc(-c3cccs3)nc3ccccc23)o1)NC1CCCCC1,"inconclusive: 39.8 µM [inhibitor, single point]",–
N/C(=N\c1nc2ccccc2o1)NC(=O)c1ccccc1NC(=O)c1ccccc1,"inconclusive: 25.1 µM [inhibitor, single point]",–
CC(C)(C)C1CCc2c(C(=O)NNC(=O)CCC(=O)O)csc2C1 (centres undefined),"inconclusive: 25.1 µM [activator, single point]",–
CC1=CC[C@@H]2[C@@H](C1)c1c(O)cc(CC#CCCCNS(C)(=O)=O)cc1OC2(C)C,"inconclusive: 39.8 µM [activator, single point]",–
CCOc1ccc(-c2nnn(CC(=O)c3ccc4c(c3)OCCO4)n2)cc1OCC,"inconclusive: 25.1 µM [activator, single point]",–
CCOC(=O)c1c(NC(=S)NC)sc2c1CC(C)(C)SC2,–,inactive: -23.9%
COc1cccc(CNC(=O)Cn2c(=O)cc(C(F)(F)F)c3c(C)nn(C)c32)c1OC,"inconclusive: 25.1 µM [activator, partial curve]",–
CCOC(=O)c1ccc2c(c1)sc1nc(-c3ccc(OCC)cc3)cn12,–,inactive: -1.07%
COC(=O)CCC(=O)N1CCc2cc(S(=O)(=O)N3CCc4ccccc43)ccc21,"inconclusive: 31.6 µM [activator, single point]",–
CCC1Oc2ccc(C)cc2N(CC(=O)NCc2ccc(F)cc2)C1=O (centres undefined),–,inactive: -6.91%
COc1cccc2sc(N(Cc3cccnc3)C(=O)C3CCCCC3)nc12,"inconclusive: 31.6 µM [activator, single point]",–
O=C(CNC(=O)c1ccccc1Cl)OCc1cc(=O)n2nc(C3CC3)sc2n1,"inconclusive: 20 µM [inhibitor, single point]",–
Cc1ccc(/C=C/C(=O)NCCCN2CCN(CCCNC(=O)/C=C/c3ccc(C)o3)CC2)o1,"inconclusive: 5.01 µM [inhibitor, single point]",–
Cc1ccc(C)c(N(C)C(=O)CCNC(=O)Cn2cnc3ccccc3c2=O)c1,–,inactive: -4.88%
CC(=O)Nc1ccc(-c2nnc(SCC(=O)n3c4c(c5ccccc53)CCCC4)n2C)cc1,"inconclusive: 10 µM [activator, single point]",–
Cc1ccc(-c2nnc(-c3ccccc3)c(N3CCOCC3)n2)cc1,–,inactive: -6.29%
CSc1ccc(/C=N/NC(=O)c2cccc(Cl)c2)cc1,"inconclusive: 39.8 µM [inhibitor, single point]",–
Cc1ccccc1-c1nc(CS(=O)CC(=O)NCCCN(C)c2ccccc2)c(C)o1 (centres undefined),"inconclusive: 31.6 µM [activator, single point]",–
c1ccc2c(c1)ncc1cccn12,"inconclusive: 31.6 µM [activator, single point]",–

SMILES,Potency,"max response, negative = inhibition"
COC(=O)c1cccc(NC(=O)c2cc3sccc3n2C)c1,active: 25.1 µM,–
Cc1c(C(=O)N2CCCCCC2)c(S(=O)(=O)Nc2ccc(OC(F)(F)F)cc2)c(C)n1C,"inconclusive: 31.6 µM [activator, single point]",–
O=C(CN1CCN(S(=O)(=O)c2ccc(Cl)s2)CC1)NCc1ccc(Cl)cc1,"inconclusive: 31.6 µM [activator, partial curve]",–
C=CCn1c(N)c(C(=O)Nc2ccc(C)cc2)sc1=S,"inconclusive: 39.8 µM [inhibitor, single point]",–
CC(C)C[C@H]1COC(c2ccc(Br)cc2)=N1,–,inactive: 3.61%
CC/C(=N/NC(=O)c1ccc(Br)o1)c1ccc(Cl)cc1,"inconclusive: 39.8 µM [inhibitor, single point]",–
CCOC(=O)N1CCN(C(=O)Cn2nc(-c3ccc(Cl)cc3)ccc2=O)CC1,"inconclusive: 39.8 µM [activator, single point]",–
COc1cccc(S(=O)(=O)Nc2ccc3sc(C)nc3c2)c1,–,inactive: -0.848%
CC1CCN(C(=O)CN2c3ccc(Br)cc3-c3ccccc3S2(=O)=O)CC1,–,inactive: -9.35%
COC(=O)c1ccc(C2c3c(-c4ccc(Br)cc4)n[nH]c3C(=O)N2c2ccc(Cl)cc2)cc1 (centres undefined),active: 15.8 µM,–
CC(=O)N1CCN(C(=O)C(=O)Nc2c3c(nn2-c2ccc(Cl)cc2)CSC3)CC1,"inconclusive: 31.6 µM [activator, single point]",–
COc1ccccc1[C@H]1C(c2ccccc2)=NN(c2ccccc2)[C@@H]1CO,"inconclusive: 50.1 µM [inhibitor, single point]",–
CC(=O)N1CCc2c(sc(NC(=O)C3CC3)c2-c2nc3ccccc3s2)C1,"inconclusive: 39.8 µM [activator, single point]",–
O=C(c1ccncc1)N1CCC2(CC1)CCN(c1cccc(-c3ccccc3)c1)CC2,"inconclusive: 39.8 µM [activator, single point]",–
COc1cc2c(cc1OC)n(CC(=O)Nc1ccc(C)cc1C)c(=O)n1nc(-c3ccccc3)nc21,–,inactive: 5.72%
COc1ccc(-c2ccc(SCC(=O)N3c4ccccc4CC3C)nn2)cc1OC (centres undefined),"inconclusive: 31.6 µM [activator, single point]",–
O=C(Nc1cccc(F)c1)N1CCC2(CC1)CCN(C(=O)c1cc(C(F)(F)F)cc(C(F)(F)F)c1)CC2,"inconclusive: 20 µM [activator, single point]",–
CCCC1(C(=O)O)NC(c2ccccc2O)C2C(=O)N(c3cccc(Cl)c3)C(=O)C21 (centres undefined),"inconclusive: 7.94 µM [inhibitor, full curve, poor fit]",–
COC(=O)c1sc(NC(=O)c2ccc(Cn3cc(Cl)cn3)o2)c(C#N)c1C,"inconclusive: 20 µM [inhibitor, single point]",–
CCn1ccc2cc(S(=O)(=O)N3CCCN(C(=O)Nc4ccc(C)cc4Cl)CC3)ccc21,–,inactive: -20%
C/C(=N\NC(=O)c1cc(-c2cccnc2)nc2ccccc12)c1ccccc1O,"inconclusive: 39.8 µM [activator, single point]",–
CC(C)CCSc1ncnc2c1oc1nc3c(cc12)COC(C)(C)C3,"inconclusive: 31.6 µM [activator, single point]",–

SMILES,Potency,"max response, negative = inhibition"
Fc1cnc(N2CCc3ccccc32)nc1N1CCc2ccccc21,active: 3.16 µM,–
COc1cccc(CNC(=O)CSc2cc(C)[nH]c(=O)n2)c1,"inconclusive: 3.98 µM [activator, single point]",–
COCC(=O)Nc1nc2n(n1)C(c1ccc(Cl)cc1)CC(c1ccc(OC)cc1)N2 (centres undefined),"inconclusive: 39.8 µM [activator, single point]",–
Cc1ccc2nc(-c3ccc(SCC(=O)N4CCc5ccccc54)nc3)[nH]c2c1,"inconclusive: 31.6 µM [inhibitor, single point]",–
CCC1=C(OC(=O)N(CC)CC)N2C(=O)OC(=NCC(=O)OC)[C@]2(Cc2ccccc2)[C@H]2C1=CC[C@H]1C(=O)NC(=O)[C@H]12,"inconclusive: 31.6 µM [activator, single point]",–
COC(=O)CC1=NN(c2ccc(OC)cc2)C(=O)/C1=C\c1ccc(Cl)cc1,"inconclusive: 31.6 µM [activator, partial curve]",–
CC(C)CN(C#N)c1nc(N2CCOCC2)nc(N2CCOCC2)n1,–,inactive: 19.3%
CCN(Cc1ccccc1)c1ccc(/C=N/NS(=O)(=O)c2ccc(C)c([N+](=O)[O-])c2)cc1,"inconclusive: 39.8 µM [inhibitor, single point]",–
Cc1ccc(-c2nc3cc(Cl)ccc3o2)cc1NC(=O)c1cc2ccccc2o1,–,inactive: 8.53%
O=[N+]([O-])c1ccc([C@@H](Nc2ccccc2)c2ccc3cccnc3c2O)cc1,–,inactive: -13.1%
Cc1cc(C)c(NC(=O)C2CCN(C(=O)N3CC(C)Oc4ccc(Cl)cc43)CC2)c(C)c1 (centres undefined),"inconclusive: 39.8 µM [activator, single point]",–
COc1ccc(NC(=O)c2cc3c(=O)n(Cc4cccs4)ccc3nc2C)c(OC)c1,"inconclusive: 31.6 µM [activator, single point]",–
CCCn1c(C)nc2c(NCc3ccccc3)nc(C)nc21,–,inactive: 0.503%
Cc1ccc(CNC(=O)CCCNC(=O)c2ccc(Cl)cc2)n1C,"inconclusive: 39.8 µM [activator, single point]",–
Nc1cc(=O)[nH]c(SCc2nc3ccccc3n2Cc2ccccc2)n1,"inconclusive: 39.8 µM [inhibitor, single point]",–
Cc1cc(C(=O)CSc2nc3ccccc3n2CCC#N)c(C)n1Cc1cccs1,active: 15.8 µM,–
Cc1noc(C)c1C(=O)N1CCC2(CCCN(c3ncccn3)C2)CC1,–,inactive: -21.5%
CCN(CC)Cc1c(O)c(Cl)cc2c(C)c(C)c(=O)oc12,"inconclusive: 39.8 µM [inhibitor, single point]",–
CC(C)c1ccc2c(c1)CC[C@H]1[C@@](C)(CN)CCC[C@@]21C,–,inactive: -6.21%
CCCc1cc2c(n1Cc1ccco1)C(C)C1CN(C(=O)c3ccccc3)C(C)(C(=O)OC)C21 (centres undefined),"inconclusive: 25.1 µM [activator, partial curve]",–
